# In publication PMC9911399, “Two distinct binding modes provide the RNA-binding protein RbFox with extraordinary sequence specificity”:
# Residue numbers refer to the chain shown, from its start. The list shows a part of the results.
# T1: RBFOX1 RRM RbFoxmut (Fox-RRM*) (Homo sapiens, UniProt Q9NWB1 109-208, R118D;E147R;N151S;E152T)
# T1 sequence: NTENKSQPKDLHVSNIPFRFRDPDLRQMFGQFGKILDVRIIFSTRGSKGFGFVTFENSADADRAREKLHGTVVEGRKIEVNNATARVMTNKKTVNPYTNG
# B1: CUCGGGA (DNA:RNA)
# RNA: GGGAGACCGGAAUUCAGAUUGUCCCUCGGGAUUAAAUCCCGUCGUAGCCACCA
# DNA 1: CAATCTGAATTCCGGTCTCCC
# DNA 2: TGGTGGCTACGACGGGATT
# B2: ACUGAGG (DNA:RNA)
# RNA: B1 RNA with C25A, U26C, C27U, G29A, A31G
# DNA 1: CAATCTGAATTCCGGTCTCCC
# DNA 2: TGGTGGCTACGACGGGATT
# B3: AAGGUGG (DNA:RNA)
# RNA: B1 RNA with C25A, U26A, C27G, G29U, A31G
# DNA 1: CAATCTGAATTCCGGTCTCCC
# DNA 2: TGGTGGCTACGACGGGATT
# B4: GUCCCCC (DNA:RNA)
# RNA: B1 RNA with C25G, G28C, G29C, G30C, A31C
# DNA 1: CAATCTGAATTCCGGTCTCCC
# DNA 2: TGGTGGCTACGACGGGATT
# B5: CGCAGAU (DNA:RNA)
# RNA: B1 RNA with U26G, G28A, G30A, A31U
# DNA 1: CAATCTGAATTCCGGTCTCCC
# DNA 2: TGGTGGCTACGACGGGATT
# B6: GCCUGCC (DNA:RNA)
# RNA: B1 RNA with C25G, U26C, G28U, G30C, A31C
# DNA 1: CAATCTGAATTCCGGTCTCCC
# DNA 2: TGGTGGCTACGACGGGATT
# B7: UAUAAGC (DNA:RNA)
# RNA: B1 RNA with C25U, U26A, C27U, G28A, G29A, A31C
# DNA 1: CAATCTGAATTCCGGTCTCCC
# DNA 2: TGGTGGCTACGACGGGATT
# B8: UCCAAAU (DNA:RNA)
# RNA: B1 RNA with C25U, U26C, G28A, G29A, G30A, A31U
# DNA 1: CAATCTGAATTCCGGTCTCCC
# DNA 2: TGGTGGCTACGACGGGATT
# B9: CUGAACU (DNA:RNA)
# RNA: B1 RNA with C27G, G28A, G29A, G30C, A31U
# DNA 1: CAATCTGAATTCCGGTCTCCC
# DNA 2: TGGTGGCTACGACGGGATT
# B10: CAGAGCA (DNA:RNA)
# RNA: B1 RNA with U26A, C27G, G28A, G30C
# DNA 1: CAATCTGAATTCCGGTCTCCC
# DNA 2: TGGTGGCTACGACGGGATT
# B11: CCGUUCA (DNA:RNA)
# RNA: B1 RNA with U26C, C27G, G28U, G29U, G30C
# DNA 1: CAATCTGAATTCCGGTCTCCC
# DNA 2: TGGTGGCTACGACGGGATT
# B12: AUAACCC (DNA:RNA)
# RNA: B1 RNA with C25A, C27A, G28A, G29C, G30C, A31C
# DNA 1: CAATCTGAATTCCGGTCTCCC
# DNA 2: TGGTGGCTACGACGGGATT
# B13: GCUCGUC (DNA:RNA)
# RNA: B1 RNA with C25G, U26C, C27U, G28C, G30U, A31C
# DNA 1: CAATCTGAATTCCGGTCTCCC
# DNA 2: TGGTGGCTACGACGGGATT
# B14: UCUUUCC (DNA:RNA)
# RNA: GGGAGACCGGAAUUCAGAUUGUCCUCUUUCCUUAAAUCCCGUCGUAGCCACCA
# DNA 1: CAATCTGAATTCCGGTCTCCC
# DNA 2: TGGTGGCTACGACGGGATT
# B15: CCGAGAU (DNA:RNA)
# RNA: B1 RNA with U26C, C27G, G28A, G30A, A31U
# DNA 1: CAATCTGAATTCCGGTCTCCC
# DNA 2: TGGTGGCTACGACGGGATT
# B16: CCCGGGC (DNA:RNA)
# RNA: B1 RNA with U26C, A31C
# DNA 1: CAATCTGAATTCCGGTCTCCC
# DNA 2: TGGTGGCTACGACGGGATT
# B17: AGACUGC (DNA:RNA)
# RNA: B14 RNA with U25A, C26G, U27A, U28C, C30G
# DNA 1: CAATCTGAATTCCGGTCTCCC
# DNA 2: TGGTGGCTACGACGGGATT
# B18: AGAUCUU (DNA:RNA)
# RNA: B14 RNA with U25A, C26G, U27A, U29C, C30U, C31U
# DNA 1: CAATCTGAATTCCGGTCTCCC
# DNA 2: TGGTGGCTACGACGGGATT
# B19: UCCCGAC (DNA:RNA)
# RNA: B14 RNA with U27C, U28C, U29G, C30A
# DNA 1: CAATCTGAATTCCGGTCTCCC
# DNA 2: TGGTGGCTACGACGGGATT
# B20: GGGUGGC (DNA:RNA)
# RNA: B1 RNA with C25G, U26G, C27G, G28U, A31C
# DNA 1: CAATCTGAATTCCGGTCTCCC
# DNA 2: TGGTGGCTACGACGGGATT
# Target: T1, RBFOX1 RRM RbFoxmut (Fox-RRM*)
# Assay: EMSA; HiTS-Eq, 1 nM pool, 10 min; buffer printed only for the single-RNA assays: 10 mM Tris pH 7.5, 150 mM NaCl, 3.4 mM EDTA, 0.001% NP-40, 30 C
# Details: tags: His6 N-terminal (pET28a); label: 5' 32P
# Procedure, shortened: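 Purified wild-type or mutant RbFox RRM at increasing concentrations was equilibrated with 1 nM of 5′-radiolabelled RNA carrying 7 randomized nucleotides for 10 min in 50 µL. Unbound RNA was separated by 8% native PAGE and sequenced. Relative association constants came from read-count changes of each RNA species compared with the control reaction, normalised to the cognate motif.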
row,Binder,binding signal
1,B1,0.0642 KA relative to UGCAUGU
2,B2,0.0777 KA relative to UGCAUGU
3,B3,0.101 KA relative to UGCAUGU
4,B4,0.0401 KA relative to UGCAUGU
5,B5,0.105 KA relative to UGCAUGU
6,B6,0.176 KA relative to UGCAUGU
7,B7,0.0698 KA relative to UGCAUGU
8,B8,0.0505 KA relative to UGCAUGU
9,B9,0.0766 KA relative to UGCAUGU
10,B10,0.101 KA relative to UGCAUGU
11,B11,0.124 KA relative to UGCAUGU
12,B12,0.0834 KA relative to UGCAUGU
13,B13,0.127 KA relative to UGCAUGU
14,B14,0.0389 KA relative to UGCAUGU
15,B15,0.096 KA relative to UGCAUGU
16,B16,0.0607 KA relative to UGCAUGU
17,B17,0.0825 KA relative to UGCAUGU
18,B18,0.0706 KA relative to UGCAUGU
19,B19,0.0609 KA relative to UGCAUGU
20,B20,0.122 KA relative to UGCAUGU
